Hit rate of the full screen: of about 310,000 compounds, about 2,200 (0.71%) showed an effect of 50% or more. The effect is printed as a negative number. Some of the results follow.
The compounds below were run against human ether-à-go-go-related gene (hERG) potassium channel (human, UniProt Q12809) (assay: primary screen, population patch clamp on CHO cells stably expressing hERG).
Chain of human ether-à-go-go-related gene (hERG) potassium channel (Q12809 whole entry, looked up): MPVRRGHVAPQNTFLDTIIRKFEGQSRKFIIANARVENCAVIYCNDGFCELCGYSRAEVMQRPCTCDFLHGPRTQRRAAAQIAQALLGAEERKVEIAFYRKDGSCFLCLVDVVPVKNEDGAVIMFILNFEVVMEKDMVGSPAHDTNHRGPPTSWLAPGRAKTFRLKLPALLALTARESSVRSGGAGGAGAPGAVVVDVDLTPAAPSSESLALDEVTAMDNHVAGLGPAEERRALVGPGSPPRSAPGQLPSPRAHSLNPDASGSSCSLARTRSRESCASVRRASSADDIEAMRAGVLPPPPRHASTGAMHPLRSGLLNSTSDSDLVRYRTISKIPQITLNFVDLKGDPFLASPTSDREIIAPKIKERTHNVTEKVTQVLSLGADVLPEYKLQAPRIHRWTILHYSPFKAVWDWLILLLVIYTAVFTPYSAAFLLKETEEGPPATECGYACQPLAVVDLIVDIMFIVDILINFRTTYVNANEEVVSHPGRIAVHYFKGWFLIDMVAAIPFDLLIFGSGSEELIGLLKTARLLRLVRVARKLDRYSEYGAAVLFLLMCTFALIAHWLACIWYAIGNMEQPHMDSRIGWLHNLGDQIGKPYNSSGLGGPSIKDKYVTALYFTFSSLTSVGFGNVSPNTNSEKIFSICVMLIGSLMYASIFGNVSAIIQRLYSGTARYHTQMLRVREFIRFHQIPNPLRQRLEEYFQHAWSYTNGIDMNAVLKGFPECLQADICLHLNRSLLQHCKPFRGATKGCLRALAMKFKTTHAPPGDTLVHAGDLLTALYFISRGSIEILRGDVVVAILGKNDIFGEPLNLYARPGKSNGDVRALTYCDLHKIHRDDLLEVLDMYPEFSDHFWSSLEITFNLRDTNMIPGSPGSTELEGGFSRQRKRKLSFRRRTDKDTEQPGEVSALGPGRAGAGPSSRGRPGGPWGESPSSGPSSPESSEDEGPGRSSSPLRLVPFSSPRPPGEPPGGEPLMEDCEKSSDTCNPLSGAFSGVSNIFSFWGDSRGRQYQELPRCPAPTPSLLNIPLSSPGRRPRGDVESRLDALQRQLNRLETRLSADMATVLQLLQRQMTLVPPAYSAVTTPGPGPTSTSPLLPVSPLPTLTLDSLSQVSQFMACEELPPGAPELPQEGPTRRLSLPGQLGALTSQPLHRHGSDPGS
`Cc1cccc(C)c1OCC(=O)NCC1COc2ccccc2O1` (centres unmarked) was tested, and the “hERG current change (%, negative = inhibition) at 1uM” value was 3.69%.
For `Cc1ccc(C(=O)OC(C)C(=O)NC2CCCCC2C)cc1S(=O)(=O)N1CCCCC1` (centres unmarked), the “hERG current change (%, negative = inhibition) at 1uM” value was 11.1%.
`CC1(C)CC(=O)C=C(c2ccc(F)nc2)C1` was tested, and the “hERG current change (%, negative = inhibition) at 1uM” value was 16.6%.
`C#CCOCCOCCOCCNc1nc(N2CCOCC2)nc(N2CCN(C(=O)CCCCCCCCCCNC(=O)[C@@H](CCSC)n3cc(CCO)nn3)CC2)n1` was tested, and the “hERG current change (%, negative = inhibition) at 1uM” value was 3.78%.
`CCCCCCCn1c2c(c(=N)c3ccccc31)CCC2.I` was tested, and the “hERG current change (%, negative = inhibition) at 1uM” value was -89.6%.
`COc1ccc(Nc2nc(-c3ccccc3)c(C(=O)Nc3cccnc3)s2)cc1` was tested, and the “hERG current change (%, negative = inhibition) at 1uM” value was 1.01%.
In the case of `CCOC(=O)c1cccc(NC(=O)/C=C/c2ccc([N+](=O)[O-])cc2)c1`, the “hERG current change (%, negative = inhibition) at 1uM” value is reported as 3.37%.
For `CC1CCCN(c2ccc(C(=O)Nc3ccc4c(c3)OCO4)cc2[N+](=O)[O-])C1` (centres unmarked), the “hERG current change (%, negative = inhibition) at 1uM” value was 0.271%.
`COc1ccccc1NC(=O)c1ccc(N2CC3CC(C2)c2cccc(=O)n2C3)c(NC(=O)c2ccncc2)c1` (centres unmarked) was tested, and the “hERG current change (%, negative = inhibition) at 1uM” value was 11%.
`CC1CCCN(CCCN2C(=O)C3C(C(=O)Nc4cccc(Cl)c4)C4C=CC3(O4)C2C(=O)NC2CCCCC2)C1` (centres unmarked) was tested, and the “hERG current change (%, negative = inhibition) at 1uM” value was 16.1%.
`CCOC(=O)C(=O)N=Nc1c(O)n(C)c2ccccc12` was tested, and the “hERG current change (%, negative = inhibition) at 1uM” value was -3.2%.
With `CNS(=O)(=O)c1ccc2c3c(cccc13)C(=O)N2` the “hERG current change (%, negative = inhibition) at 1uM” value was 10.1%.
`CCCC(=O)C1=C(O)C(C(=O)OC)C(C)(C)CC1=Nc1ccc(OC)cc1` (centres unmarked) was tested, and the “hERG current change (%, negative = inhibition) at 1uM” value was 10.8%.
For `Cc1sc2ncnc(N/N=C/c3cccc(O)c3)c2c1C`, the “hERG current change (%, negative = inhibition) at 1uM” value was -5.14%.
In the case of `CC(C)C(=O)Nc1ccc(C(=O)NNC(=O)C(c2ccccc2)c2ccccc2)cc1`, the “hERG current change (%, negative = inhibition) at 1uM” value is reported as 6.07%.
For `COCC(=O)NC(C)c1nc2ccccc2[nH]1` (centres unmarked), the “hERG current change (%, negative = inhibition) at 1uM” value was 5.71%.
With `CCOC(=O)COc1ccc([N+](=O)[O-])cc1` the “hERG current change (%, negative = inhibition) at 1uM” value was 4.52%.
`CSCCC(NC(=O)c1ccccc1Br)C(=O)Nc1ccc(C)cc1` (centres unmarked) was tested, and the “hERG current change (%, negative = inhibition) at 1uM” value was 7.5%.
With `COc1cc(C(=O)Nc2ccccc2N2CCCCC2)cc(OC)c1OC` the “hERG current change (%, negative = inhibition) at 1uM” value was 4.26%.
In the case of `Cc1ccnc(SCC(=O)c2cccc([N+](=O)[O-])c2)n1`, the “hERG current change (%, negative = inhibition) at 1uM” value is reported as 5.6%.
In the case of `CN(CC(=O)Nc1ccccc1Cl)C(=O)CCc1nc2ccccc2c(=O)[nH]1`, the “hERG current change (%, negative = inhibition) at 1uM” value is reported as -11.3%.
`COc1ccc(S(=O)(=O)N(C)c2ccc(C(=O)Nc3cccnc3)cc2)cc1OC` was tested, and the “hERG current change (%, negative = inhibition) at 1uM” value was 7.55%.
For `CC1CC(C)(C)NC(=S)N1CCC(=O)NCc1ccc(Cl)cc1` (centres unmarked), the “hERG current change (%, negative = inhibition) at 1uM” value was -4.99%.
`O=C(c1ccc(Cl)cc1)C1CCCN(Cc2cccn2-c2cccnc2)C1` (centres unmarked) was tested, and the “hERG current change (%, negative = inhibition) at 1uM” value was 2.77%.
With `N/C(=N\OCc1ccc([N+](=O)[O-])cc1)c1ccncc1` the “hERG current change (%, negative = inhibition) at 1uM” value was 1.6%.
With `CCOCCc1c(O)[nH]c(=S)[nH]c1=O` the “hERG current change (%, negative = inhibition) at 1uM” value was 14.3%.
`COc1ccc(/C=N/Nc2nncc3ccccc23)cc1` was tested, and the “hERG current change (%, negative = inhibition) at 1uM” value was 11.1%.
For `CC(=O)OCC#CCSc1nc2ccccc2n1C`, the “hERG current change (%, negative = inhibition) at 1uM” value was 8.19%.
For `Cc1cc(N)n(-c2ncnc3scc(-c4ccc(Cl)cc4)c23)n1`, the “hERG current change (%, negative = inhibition) at 1uM” value was 9.54%.
With `O=C(/C=C/c1ccc(O)c(O)c1)OC1C(O)CC(OC(=O)/C=C/c2ccc(O)c(O)c2)(C(=O)O)CC1O` (centres unmarked) the “hERG current change (%, negative = inhibition) at 1uM” value was 8.47%.
With `CC(C)(C)C1CCC(=NNC(=O)CC(=O)NCc2ccccc2)CC1` (centres unmarked) the “hERG current change (%, negative = inhibition) at 1uM” value was 10.2%.
In the case of `C#CCOCCOCCOCCNc1nc(N2CCN(C(=O)[C@H](Cc3ccc(O)cc3)n3cc([C@@H](N)C(C)CC)nn3)CC2)nc(N2CCN(C(=O)[C@H](Cc3cc4ccccc4[nH]3)n3cc([C@@H](N)C(C)CC)nn3)CC2)n1.Cl` (some centres unmarked), the “hERG current change (%, negative = inhibition) at 1uM” value is reported as 4.13%.
`Cc1ccc(C(=O)NCC(C)NC(=O)c2ccc(C)c([N+](=O)[O-])c2)cc1[N+](=O)[O-]` (centres unmarked) was tested, and the “hERG current change (%, negative = inhibition) at 1uM” value was 12.4%.
For `CC(C)(C)n1nc2c(c1NC(=O)c1cccc(Cl)c1)CS(=O)(=O)C2`, the “hERG current change (%, negative = inhibition) at 1uM” value was 0.55%.
With `O=C(N/N=C/c1ccc([N+](=O)[O-])o1)c1cc2ccccc2o1` the “hERG current change (%, negative = inhibition) at 1uM” value was -7.07%.
`OCC1(CCOc2ccccc2)CCN(Cc2cn[nH]c2-c2ccccc2)CC1` was tested, and the “hERG current change (%, negative = inhibition) at 1uM” value was -68.3%.
`COc1ccc(C)cc1-n1nnnc1SCc1cc(=O)n2cc(C)ccc2n1` was tested, and the “hERG current change (%, negative = inhibition) at 1uM” value was -8.45%.
`O=C(Nc1nc2ccccc2[nH]1)c1ccccc1` was tested, and the “hERG current change (%, negative = inhibition) at 1uM” value was 11%.
With `COc1ccc(S(N)(=O)=O)cc1C(=O)NC1CCCc2ccccc21` (centres unmarked) the “hERG current change (%, negative = inhibition) at 1uM” value was 12.3%.
`S=c1[nH]nc(-c2cccnc2)n1/N=C/c1ccco1` was tested, and the “hERG current change (%, negative = inhibition) at 1uM” value was 9.66%.
For `Cc1ccc(NC(=O)CSCC#N)cc1Cl`, the “hERG current change (%, negative = inhibition) at 1uM” value was 2.92%.
`O=C(CCCSc1nc(-c2ccco2)cc(C(F)(F)F)n1)NCc1cccs1` was tested, and the “hERG current change (%, negative = inhibition) at 1uM” value was 10.8%.
For `NC(=O)CC(NC(=O)Cc1ccc(Br)cc1)c1ccc(NCc2cc(F)ccc2F)c([N+](=O)[O-])c1` (centres unmarked), the “hERG current change (%, negative = inhibition) at 1uM” value was -0.104%.
With `CC(C)c1nc(CNC(=O)CCc2nnc(-c3ccsc3)o2)cs1` the “hERG current change (%, negative = inhibition) at 1uM” value was 0.865%.
`Cc1c(C2=CCN(S(=O)(=O)c3ccc(Br)cc3)CC2)c2ccccc2n1C` was tested, and the “hERG current change (%, negative = inhibition) at 1uM” value was 11.9%.
For `CC(C)(C)Nc1nc(Oc2ccc(=O)[nH]n2)nc(N2CCOCC2)n1`, the “hERG current change (%, negative = inhibition) at 1uM” value was 7.22%.
With `COC(=O)Cn1cc(C#N)c2ccccc21` the “hERG current change (%, negative = inhibition) at 1uM” value was -0.17%.
For `CC1CN(C(=O)C2(C)CC2(Cl)Cl)CC(C)O1` (centres unmarked), the “hERG current change (%, negative = inhibition) at 1uM” value was -0.814%.
`CCOc1cccc(-c2c(C(=O)N/N=C/c3ccsc3)nnn2-c2nonc2N)c1` was tested, and the “hERG current change (%, negative = inhibition) at 1uM” value was 11.5%.
With `COc1cc(NC(=O)c2cncc(-c3ccc(C#N)cc3)c2)cc(C(=O)Nc2cccc(C(F)(F)F)c2)c1` the “hERG current change (%, negative = inhibition) at 1uM” value was 7.28%.
In the case of `O=C(CN1CCCC1=O)NC1CCCc2c1cnn2-c1cc(F)cc(F)c1` (centres unmarked), the “hERG current change (%, negative = inhibition) at 1uM” value is reported as 23.4%.
`Cc1ccccc1NC(=O)Cc1nc(COC(=O)c2ccccn2)cs1` was tested, and the “hERG current change (%, negative = inhibition) at 1uM” value was -4.6%.
For `COCCN(CC(=O)Nc1cccc(C)c1C)C(=O)Cc1sc(C)nc1-c1ccc(F)cc1`, the “hERG current change (%, negative = inhibition) at 1uM” value was 13.3%.

Source: PMC4336329 (PLoS ONE, 2015)
